# In PMC4336329 (PLoS ONE, 2015):
# Hit rate of the full screen: of about 310,000 compounds, about 2,200 (0.71%) showed an effect of 50% or more. Effects have a minus sign here. The list shows a part of the results.
# Biological target: human ether-à-go-go-related gene (hERG) potassium channel (human, UniProt Q12809)
# Assay: primary screen, population patch clamp on CHO cells stably expressing hERG
# Chain of human ether-à-go-go-related gene (hERG) potassium channel (Q12809 whole entry, looked up): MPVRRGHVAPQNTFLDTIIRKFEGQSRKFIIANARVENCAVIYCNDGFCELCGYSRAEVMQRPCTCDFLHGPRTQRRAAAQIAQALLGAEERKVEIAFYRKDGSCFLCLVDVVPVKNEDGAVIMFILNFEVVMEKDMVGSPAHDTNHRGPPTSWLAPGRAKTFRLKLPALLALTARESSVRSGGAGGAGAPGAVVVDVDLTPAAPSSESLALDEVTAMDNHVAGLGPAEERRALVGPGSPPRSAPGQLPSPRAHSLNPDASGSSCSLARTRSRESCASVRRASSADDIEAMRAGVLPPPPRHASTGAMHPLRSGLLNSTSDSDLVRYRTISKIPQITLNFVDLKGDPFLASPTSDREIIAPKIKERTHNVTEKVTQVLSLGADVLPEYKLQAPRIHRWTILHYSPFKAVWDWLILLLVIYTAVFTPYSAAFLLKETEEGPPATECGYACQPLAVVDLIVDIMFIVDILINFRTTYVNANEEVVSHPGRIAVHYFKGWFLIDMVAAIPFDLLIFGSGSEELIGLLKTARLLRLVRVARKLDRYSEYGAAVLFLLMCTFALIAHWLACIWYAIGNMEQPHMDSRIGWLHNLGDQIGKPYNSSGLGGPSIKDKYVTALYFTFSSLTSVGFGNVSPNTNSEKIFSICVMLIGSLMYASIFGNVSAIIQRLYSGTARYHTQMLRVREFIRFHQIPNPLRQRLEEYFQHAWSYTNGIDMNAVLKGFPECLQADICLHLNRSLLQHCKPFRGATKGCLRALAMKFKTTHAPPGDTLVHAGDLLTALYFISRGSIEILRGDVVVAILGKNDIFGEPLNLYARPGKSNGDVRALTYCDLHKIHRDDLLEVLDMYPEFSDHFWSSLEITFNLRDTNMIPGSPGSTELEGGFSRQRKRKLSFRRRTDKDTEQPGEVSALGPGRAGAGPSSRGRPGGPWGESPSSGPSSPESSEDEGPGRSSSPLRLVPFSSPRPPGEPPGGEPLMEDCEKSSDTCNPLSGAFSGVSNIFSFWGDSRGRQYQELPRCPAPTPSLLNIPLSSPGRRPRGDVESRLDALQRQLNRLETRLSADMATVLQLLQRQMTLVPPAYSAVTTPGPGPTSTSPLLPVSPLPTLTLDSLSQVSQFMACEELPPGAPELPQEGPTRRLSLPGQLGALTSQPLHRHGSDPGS
row,SMILES,"hERG current change (%, negative = inhibition) at 1uM"
1,O=C(Nc1ccccc1)c1cccc(N2C(=O)CCC2=O)c1,1.87%
2,Nc1ccccc1C(=O)NCc1ccc(F)cc1,28.6%
3,Cc1cc(OCC(=O)Nc2cc(C(C)(C)C)on2)ccc1[N+](=O)[O-],-3.14%
4,N/C(=N\OC(=O)/C=C/c1ccccc1)c1ccc(Br)cc1,7.48%
5,COc1ccc(/C=N/n2cnc3c([nH]c4ccc(Br)cc43)c2=O)cc1CN1CCOCC1,11.6%
6,O=C(Nc1nc2c(s1)CN(Cc1ccccc1)CC2)C1CCC1,3.08%
7,COc1cc(CC(=O)N(C)CC(=O)Nc2ccc(Cl)c(C(F)(F)F)c2)cc(OC)c1OC,4.37%
8,CCOC(=O)CCCSc1nnc(CCCCCN2C(=O)c3cccc4cccc(c34)C2=O)o1,6.5%
9,NC(=S)N/N=C1\c2ccccc2-c2c(C(=O)O)cccc21,13.2%
10,CC(C)C(NC(=O)/C=C/c1ccc(F)cc1)C(C)C,13.2%
11,COc1ccc(CSc2n[nH]c(C)n2)cc1Br,15.4%
12,Cc1ccc(N)cc1NC(=O)CN1CCOCC1,12.9%
13,C=CCN=C1CC(C)(C)CC(=O)/C1=C(\O)c1ccccc1,0.308%
14,CCOc1ccc(-c2cc(CCCC(=O)N3CCN(c4ccc(OC)cc4)CC3)no2)cc1,11.2%
15,COc1ccc(C(=O)COc2ccc3ccc(=O)oc3c2)c(OC)c1,2.95%
16,O=S(=O)(Nc1ccc(O)c2ccccc12)c1ccc(F)cc1,21.6%
17,CC(C(=O)O)c1ccc(C(=O)c2ccccc2)s1 (stereo not shown),1.95%
18,CCCCC(=O)Nc1ccc2c3c(cccc13)CC2,8.78%
19,Cc1ccc(C(=O)Nc2cccc(-c3ccc(N4CCOCC4)nn3)c2)cc1[N+](=O)[O-],10.4%
20,CC(C)c1ccc2nc(SCC(=O)NCC3CCCO3)c(C#N)cc2c1 (stereo not shown),7.83%
21,CCN(CC)CCn1c(O)c(N=O)c2ccccc21,-1.01%
22,O=C(COC(=O)[C@@H]1CC(O)CN1S(=O)(=O)c1ccc2c(c1)OCCO2)NCc1ccc(F)cc1 (stereo partly shown),13.9%

row,SMILES,"hERG current change (%, negative = inhibition) at 1uM"
1,CC1CC(C)CN(C(=O)CSCC(=O)O)C1 (stereo not shown),4.57%
2,CCOc1ccccc1C(=O)Nc1nn[nH]n1,9.18%
3,CCOC(=O)COc1nc(-c2ccc(C)cc2)cc(-c2ccco2)c1C#N,15.7%
4,COc1cc2ccc(=O)oc2c(O[C@@H]2O[C@H](CO)[C@@H](O)[C@H](O)[C@H]2O)c1O.O,4.52%
5,Brc1cc(Br)c2nc3c(cc2c1)CCC3,11.8%
6,CC(C)CCN(Cc1ccco1)S(=O)(=O)c1ccc(-c2ccc(=O)[nH]n2)s1,14.9%
7,COc1ccccc1-n1nc(C)cc1N,4.33%
8,COc1ccc(OC)c(CC(=O)NC(c2ccccc2)c2ccccc2)c1,7.84%
9,CC1(C)C/C(=N\O)C(C(O)c2cccc([N+](=O)[O-])c2)C(C)(C)N1 (stereo not shown),17.9%
10,COc1cccc(-c2cc(C(=O)N/N=C/c3ccc(OC)c(COC(C)=O)c3)c3ccccc3n2)c1,10.4%
11,O=C(COC(=O)/C=C/c1cc(Br)ccc1F)Nc1ccc2[nH]c(=O)[nH]c2c1,8.58%
12,Cc1cccnc1NC(=O)CCCc1c[nH]c2ccccc12,9.95%
13,O=c1cc(N2CCCCC2)c(-c2ccccc2)n[nH]1,18.5%
14,Cc1ccc(S(=O)(=O)Nc2cccc(C(=O)NCc3ccc(S(N)(=O)=O)cc3)c2)cc1,12.7%
15,N#Cc1ccccc1NC(=O)COC(=O)COc1ccccc1[N+](=O)[O-],12.8%
16,Cc1ccc(S(=O)(=O)Cc2ccc(C(=O)N3CCN(c4cccc(C)c4C)CC3)o2)cc1,16.2%
17,Cc1noc(C)c1COc1ccccc1C(=O)N(C)CC(=O)Nc1cccc(F)c1,0.926%
18,CCOC(=O)c1cnn(Cc2cccc(Cl)c2)c1C,4.98%
19,CN(CCCn1c(=S)[nH]c2ncccc2c1=O)Cc1ccccc1,6.4%
20,Cc1cc(OC(=O)CCNC(=O)OC(C)(C)C)c2c3c(c(=O)oc2c1)CCC3,0.427%
21,O=c1c2nncn2c2cccnc2n1CCNc1ncc(C(F)(F)F)cc1Cl,-15.1%
22,Cc1ccc(-c2cc(C(=O)Nc3cc(C)on3)c3ccccc3n2)cc1,12.2%

row,SMILES,"hERG current change (%, negative = inhibition) at 1uM"
1,O=C(NCC(=O)N1CCN(S(=O)(=O)/C=C/c2ccccc2)CC1)c1ccc(Cl)cc1,1.55%
2,COc1ccc(N2CCN(c3nc4ccc(C)cn4c(=O)c3C=O)CC2)cc1,3.89%
3,CC(=O)Oc1cccc(C(=O)Nc2ccc(NC(=O)c3cccs3)cc2)c1,-10.3%
4,COc1ccc(C(=O)Nc2ccc3[nH]ccc3c2)cc1,14%
5,COc1ccc(C(CCNCc2ccc(N(C)C)cc2)C(C)C)cc1 (stereo not shown),2.49%
6,COc1ccc(NC(=O)C2CCN(c3ncnc4c3nc3n4CCCCC3)CC2)cc1Cl,-9.47%
7,COc1ccc(S(=O)(=O)NCc2ccco2)cc1-c1nnc2c3ccccc3c(C)nn12,-6.26%
8,N#Cc1cn(-c2ccccc2)nc1-c1ccco1,7.66%
9,O=C(O)CN1C(=O)/C(=C\c2cccc(OCc3ccc(Cl)cc3Cl)c2)SC1=S,10.7%
10,COCCCNC(=O)c1ccc(NS(C)(=O)=O)cc1,5.97%
11,COc1ccc(NC(=O)C2CCCN(C(=O)Nc3cccc(OC)c3)C2)cc1 (stereo not shown),1.9%
12,CCOC(=O)C1CCCCN1Cc1cccc(OC)c1OC (stereo not shown),13.1%
13,CCOCC(=O)Nc1cccc(OC)c1,-0.338%
14,O=C(Cc1cccs1)Nc1nc2c(ccc3ccccc32)s1,13.1%
15,COc1ccccc1CNC(=O)c1cc(-c2ccccc2)nn1CC1CC(c2cccnc2)=NO1 (stereo not shown),-26.4%
16,Cc1csc(NC(=O)c2ccc3c(c2)OCO3)n1,4.57%
17,O=C1C(=O)N(CCO)C(c2ccccc2[N+](=O)[O-])/C1=C(\O)c1ccccc1 (stereo not shown),14.6%
18,COCCCn1c(SCC(=O)Nc2sc3c(c2C#N)CCCC3)nnc1-c1ccncc1,-13.5%
19,COc1ccccc1N1CCN(CC(O)COc2ccc(C)c(C)c2)CC1.Cl (stereo not shown),-18.8%
20,CCOc1ccc(NC(=O)CN(C)C(=O)c2ccccc2SCC(=O)N2CCCC2)cc1OCC,19.9%
21,CC(C)Oc1ccc(CCC(=O)NNC(=O)CCC(=O)O)cc1,7.24%
22,O=S(=O)(Nc1ccccc1)c1ccc(F)cc1,7.86%

row,SMILES,"hERG current change (%, negative = inhibition) at 1uM"
1,CC(C)(C)NC(=O)c1ccc2c(c1)CCO2,8.73%
2,Cc1c(NC(=O)COC(=O)/C=C/c2cccc(Br)c2)c(=O)n(-c2ccccc2)n1C,-5.13%
3,CCOC(=O)CN1C(=O)C(O)(CC(=O)c2ccco2)c2ccccc21 (stereo not shown),0.493%
4,C/C(=N/Nc1ccnc2cc(Cl)ccc12)c1ccc(N)cc1,-22.8%
5,COc1ccc(/C=C(\NC(=O)c2ccccc2)C(=O)NCc2cccnc2)cc1,-31.1%
6,Cc1cccc(/C=N/n2c(C)nnc2C)c1,6.06%
7,COc1ccc2cc(C(N)=O)/c(=N\NC(=O)c3ccccc3)oc2c1,8.73%
8,NC(=O)CC(NC(=O)Cc1ccc(Br)cc1)c1ccc(N2CCC(Br)CC2)c([N+](=O)[O-])c1 (stereo not shown),16.8%
9,FC(F)(F)c1ccccc1CN1CCN(Cc2ccccc2)CC1,9.06%
10,Cc1cc(OCC(O)CN2CCN(C)CC2)ccc1C(C)C.Cl (stereo not shown),11.7%
11,Cc1cc(C(=O)COc2cccnc2[N+](=O)[O-])c(C)n1Cc1ccco1,19.4%
12,CC(C)CCNC(=O)C1CC(c2ccc(C(F)(F)F)cc2)=NO1 (stereo not shown),20.6%
13,CCOc1ccc(S(=O)(=O)c2c(C(=O)c3ccc(C)cc3)cnc3cc4c(cc23)OCCO4)cc1,9.26%
14,CCC(C)C(=O)Nc1ccccc1N1CCN(c2ccc(F)cc2)CC1 (stereo not shown),11.3%
15,O=C(NCCCN1CCOCC1)c1cccc(S(=O)(=O)Nc2cc(Cl)ccc2Cl)c1,7.66%
16,C#CCO[C@@H]1C[C@H](n2ccc(NC(=O)c3ccccc3)nc2=O)O[C@@H]1CO,11.1%
17,CCOC(=O)C1(C)NC(c2cccc(C)c2)C2C(=O)N(c3ccccc3)C(=O)C21 (stereo not shown),-7.52%
18,Cc1cccc(N=C(NO)c2nonc2N)c1,10.4%
19,CN(CC(=O)Nc1ccncc1)S(=O)(=O)c1ccc(Cl)cc1,4.02%
20,C/C(=N\Nc1ccc(C(F)(F)F)cn1)c1ccc(S(=O)(=O)NCc2ccco2)cc1,22.5%
21,Cc1oc(-c2ccccc2F)nc1CS(=O)CC(=O)NCc1ccccc1 (stereo not shown),5.96%
22,CCOC(=O)Cc1c(C)nc2c(-c3ccccc3)c(C)[nH]n2c1=O,-4.28%
